This is an account of results in patent US20130084291A1.

This test addresses TNF-alpha. Kind of test: cell-based or functional assay.

B1: TNFR2-h(1)Fc (Fc fusion)
chain: LPAQVAFTPYAPEPGSTCRLREYYDQTAQMCCSKCSPGQHAKVFCTKTSDTVCDSCEDSTYTQLWNWVPECLSCGSRCSSDQVETQACTREQNRICTCRPGWYCALSKQEGCRLCAPLRKCRPGFGVARPGTETSDVVCKPCAPGTFSNTTSSTDICRPHQICNVVAIPGNASMDAVCTSTSPTRSMAPGAVHLPQPVSTRSQHTQPTPEPSTAPSTSFLLPMGPSPPAEGSTGD[… human IgG1 Fc with changes …]
Molecule B1 displayed an IC50 (WEHI Assay), normalized to TNFR-h(1)Fc wt (fold of wt (normalized)) of 1.

B2: CΔ46 TNFR2-h(2)Fc (Fc fusion)
chain: LPAQVAFTPYAPEPGSTCRLREYYDQTAQMCCSKCSPGQHAKVFCTKTSDTVCDSCEDSTYTQLWNWVPECLSCGSRCSSDQVETQACTREQNRICTCRPGWYCALSKQEGCRLCAPLRKCRPGFGVARPGTETSDVVCKPCAPGTFSNTTSSTDICRPHQICNVVAIPGNASMDAVCTSTSPTRSMAPTG[… human IgG1 Fc and a few adjoining residues …]
B2 yielded an IC50 (ng/ml), WEHI assay as in Example 3 of 10.4 ng/mL.
